Measured values: the antibiotic and cytotoxicity screens of Wong et al. (2023)
This is one part of the list.

Experiments:
[1] = system: HSkMC (human skeletal muscle cells); experiment: cytotoxicity call (relative viability < 0.9); settings: 10 µM
[2] = system: HepG2; experiment: cytotoxicity call (relative viability < 0.9); settings: 10 µM
[3] = system: S. aureus RN4220; experiment: growth inhibition call (relative growth <= 0.2); settings: 50 µM

Row | SMILES | cytotoxicity call [1] | cytotoxicity call [2] | growth inhibition call [3]
1 | C[C@@H]1CN([C@@H](C)CO)C(=O)Cc2cc(NS(=O)(=O)c3cccs3)ccc2O[C@H]1CN(C)Cc1ccc(-c2ccccc2)cc1 | inactive | inactive | inactive
2 | C[C@@H]1CCCCO[C@@H](CN(C)C(=O)Nc2ccc(C(F)(F)F)cc2)[C@H](C)CN([C@H](C)CO)C(=O)c2cc(NC(=O)Nc3ccc(F)cc3)ccc2O1 | inactive | active | inactive
3 | C[C@@H]1CN([C@@H](C)CO)C(=O)c2cc(NS(=O)(=O)c3ccc(Cl)cc3)ccc2O[C@@H](C)CCCCO[C@H]1CN(C)S(=O)(=O)c1ccc(F)cc1 | inactive | inactive | inactive
4 | C=CCOC(=O)[C@H]1[C@@H]2C(=O)O[C@@H](c3ccccc3)[C@@H](c3ccccc3)N2[C@@H](c2ccc(OCCOC(=O)[C@H]3C[C@H]4C(=O)N[C@@H](CC(C)C)C(=O)N4[C@H]3c3ccc(O)cc3)cc2)[C@]12C(=O)Nc1ccccc12 | inactive | inactive | inactive
5 | O=C(C[C@H]1C=C[C@@H](NC(=O)C2CCC2)[C@@H](CO)O1)NCCCN1CCOCC1 | inactive | inactive | inactive
6 | CO[C@@H]1CN(C)C(=O)c2cc(NC(=O)c3ccccc3)ccc2OC[C@H](C)N(C(=O)CN(C)C)C[C@@H]1C | inactive | inactive | inactive
7 | C[C@@H]1CN([C@@H](C)CO)C(=O)c2cc(NC(=O)Nc3ccc4c(c3)OCO4)ccc2O[C@@H](C)CCCCO[C@@H]1CN(C)S(=O)(=O)c1ccc(Cl)cc1 | inactive | inactive | inactive
8 | C[C@H]1CN([C@@H](C)CO)C(=O)c2c(c3ccccc3n2C)-c2ccccc2CO[C@@H]1CN(C)Cc1ccccc1C(F)(F)F | active | inactive | inactive
9 | COc1ccc(S(=O)(=O)Nc2ccc3c(c2)C(=O)N([C@H](C)CO)C[C@@H](C)[C@H](CN(C)C(=O)c2ccccc2)OCCCC[C@@H](C)O3)cc1 | inactive | inactive | inactive
10 | C[C@H](CO)N1C[C@H](C)[C@H](CN(C)S(C)(=O)=O)Oc2ccc(NC(=O)CCCCCC(=O)Nc3ccccc3N)cc2C1=O | inactive | inactive | inactive
11 | C[C@@H]1CN([C@H](C)CO)C(=O)Cc2cc(NS(=O)(=O)c3cn(C)cn3)ccc2O[C@@H]1CN(C)C(=O)NC1CCCCC1 | inactive | inactive | inactive
12 | CCN(CC)CCNC(=O)C(=O)NC1CC1 | inactive | inactive | inactive
13 | Cc1cc(C)nc(NS(=O)(=O)c2ccc(NC(=O)c3cccn(OCc4ccc(F)cc4)c3=O)cc2)n1 | inactive | inactive | inactive
14 | C[C@H](NC(=O)N(C)C[C@@H]1OCc2ccccc2-c2c(n(C)c3ccccc23)C(=O)N([C@@H](C)CO)C[C@H]1C)c1ccccc1 | inactive | inactive | inactive
15 | Cc1cc(C(=O)Nc2cccc3c2O[C@@H](CN(C)S(C)(=O)=O)[C@@H](C)CN([C@@H](C)CO)C3=O)n(C)n1 | inactive | inactive | inactive
16 | COc1ccc(CN(C)C[C@@H]2OCCCC[C@@H](C)Oc3ccc(NC(=O)CCC(F)(F)F)cc3C(=O)N([C@@H](C)CO)C[C@@H]2C)cc1 | inactive | inactive | inactive
17 | CCOC(=O)[C@H]1C/C=C/C[C@H](C(=O)OCC)C(=O)O[C@H]2[C@@H](OC)O[C@H](CO)[C@@H](OC(=O)Nc3ccc(Br)cc3)[C@@H]2OC1=O | active | active | inactive
18 | COc1ccc(NC(=O)N(C)C[C@H]2Oc3ccc(NC(=O)CCN4CCOCC4)cc3C(=O)N([C@@H](C)CO)C[C@H]2C)cc1 | inactive | inactive | inactive
19 | COc1ccc(S(=O)(=O)N(C)C[C@H]2OCCCC[C@@H](C)Oc3ccc(NC(=O)Nc4ccc(F)cc4)cc3C(=O)N([C@@H](C)CO)C[C@@H]2C)cc1 | inactive | inactive | inactive
20 | C[C@H](CO)N1C[C@H](C)[C@@H](CN(C)Cc2ccc(C(=O)O)cc2)Oc2ccc(NS(C)(=O)=O)cc2C1=O | inactive | inactive | inactive
21 | C[C@@H]1CN([C@@H](C)CO)C(=O)c2cc(C#CCN(C)C)cnc2O[C@H]1CN(C)S(C)(=O)=O | inactive | inactive | inactive
22 | Cc1ccc(S(=O)(=O)NCC[C@H]2CC[C@H](NS(=O)(=O)c3ccccc3Cl)[C@@H](CO)O2)cc1 | inactive | inactive | inactive
23 | C[C@@H]1CCCCO[C@H](CN(C)C(=O)Nc2ccc(F)cc2)[C@H](C)CN([C@H](C)CO)C(=O)c2cc(NS(=O)(=O)c3ccc(F)cc3)ccc2O1 | inactive | inactive | inactive
24 | C[C@@H]1CN([C@@H](C)CO)C(=O)c2cccc(NC(=O)c3ccc(-c4nccs4)cc3)c2O[C@H]1CN(C)CC1CCCCC1 | inactive | inactive | inactive
25 | C[C@@H]1CN([C@@H](C)CO)S(=O)(=O)c2ccc(Br)cc2O[C@H]1CN(C)S(=O)(=O)c1ccc(F)cc1 | inactive | inactive | inactive
26 | C[C@@H]1CCCCO[C@H](CN(C)C(=O)NC2CCCCC2)[C@@H](C)CN([C@H](C)CO)C(=O)c2cc(NC(=O)CCC(F)(F)F)ccc2O1 | inactive | inactive | inactive
27 | C[C@@H]1COC(=O)[C@H](Cc2ccc(F)cc2)CC=CC[C@@H](CC(=O)N[C@@H](CO)Cc2ccccc2)C(=O)N1 | inactive | inactive | inactive

Row | SMILES | cytotoxicity call [1] | cytotoxicity call [2] | growth inhibition call [3]
28 | Cc1cc(C)nc(NS(=O)(=O)c2ccc(N)cc2)n1 | inactive | inactive | inactive
29 | CN1C[C@H](C(N)=O)CC1=O | inactive | inactive | inactive
30 | NCC1OC(OC2C(CO)OC(OC3C(O)C(N)CC(N)C3OC3OC(CN)C(O)C(O)C3N)C2O)C(N)C(O)C1O.O=S(=O)(O)O.O=S(=O)(O)O.O=S(=O)(O)O (centres undefined) | inactive | inactive | inactive
31 | Cc1ccc(S(=O)(=O)N(C)C[C@@H]2OCCCC[C@@H](C)Oc3ccc(NC(=O)Nc4cccc5ccccc45)cc3C(=O)N([C@H](C)CO)C[C@H]2C)cc1 | inactive | inactive | inactive
32 | C[C@@H]1CN([C@H](C)CO)C(=O)c2cc(C#CCN(C)C)cnc2O[C@H]1CN(C)C(=O)c1cnccn1 | inactive | inactive | inactive
33 | C[C@@H]1CN([C@H](C)CO)C(=O)c2cc(NC(=O)Nc3ccccc3)ccc2O[C@@H](C)CCCCO[C@@H]1CN(C)S(=O)(=O)c1ccccc1 | inactive | inactive | inactive
34 | C[C@@H]1CN([C@@H](C)CO)C(=O)c2cc(NC(=O)Cn3cnnn3)ccc2O[C@@H]1CN(C)S(=O)(=O)c1cccs1 | inactive | inactive | inactive
35 | CC1=CC(C)(C)N(C(=O)/C=C/c2ccccc2)c2ccc(C)cc21 | inactive | inactive | inactive
36 | C[C@H](CO)N1C[C@H](C)[C@@H](CN(C)C(=O)Cc2ccccc2)Oc2cc(C#CC3(O)CCCC3)ccc2S1(=O)=O | inactive | inactive | inactive
37 | NCc1ccc(-n2cccn2)cc1 | inactive | inactive | inactive
38 | O=C(C[C@@H]1CC[C@@H]2[C@H](COC[C@H](O)CN2Cc2ccccc2F)O1)N[C@@H]1CCN(Cc2ccccc2)C1 | inactive | inactive | inactive
39 | COCC(=O)Nc1ccc2c(c1)C(=O)N(C)C[C@H](OC)[C@H](C)CN(C(=O)c1ccccc1F)[C@@H](C)CO2 | inactive | inactive | inactive
40 | C[C@@H]1CN([C@@H](C)CO)C(=O)c2cccc(NC(=O)Nc3cccc4ccccc34)c2O[C@H]1CN(C)S(=O)(=O)c1ccccc1 | inactive | inactive | inactive
41 | C[C@H](CO)N1C[C@H](C)[C@@H](CN(C)C(=O)Nc2ccccc2)Oc2ccc(NC(=O)Nc3cccc4ccccc34)cc2C1=O | inactive | inactive | inactive
42 | Cc1cccc(S(=O)(=O)N2C[C@H](O)COC[C@H]3O[C@@H](CC(=O)NCc4ccncn4)CC[C@@H]32)c1 | inactive | inactive | inactive
43 | Cc1onc(-c2c(Cl)cccc2Cl)c1C(=O)NC1C(=O)N2C1SC(C)(C)C2C(=O)[O-].[Na+] (centres undefined) | inactive | inactive | active
44 | CO[C@H]1CN(C)C(=O)c2cc(NS(=O)(=O)c3cn(C)cn3)ccc2OC[C@H](C)N(CC2CC2)C[C@@H]1C | inactive | inactive | inactive
45 | C[C@@H]1CCCCO[C@@H](CN(C)Cc2ccc(Cl)c(Cl)c2)[C@@H](C)CN([C@H](C)CO)C(=O)c2cc(NS(=O)(=O)c3ccccc3)ccc2O1 | inactive | active | inactive
46 | CCN(CC)CCc1nc(-c2ccccc2)no1.O=C(O)CC(O)(CC(=O)O)C(=O)O | inactive | active | inactive
47 | C[C@@H]1CN([C@H](C)CO)C(=O)c2cccc(NC(=O)Nc3ccc(F)cc3)c2O[C@@H]1CN(C)Cc1ccc(Oc2ccccc2)cc1 | inactive | active | inactive
48 | CNC[C@H]1OCCCC[C@H](C)Oc2ccc(NS(=O)(=O)c3c(C)noc3C)cc2C(=O)N([C@H](C)CO)C[C@@H]1C | inactive | inactive | inactive
49 | CO[C@@H]1CN(C)C(=O)c2cc(NS(C)(=O)=O)ccc2OC[C@@H](C)N(S(=O)(=O)CC(F)(F)F)C[C@H]1C | inactive | inactive | inactive
50 | O=C1O[C@H](c2ccccc2)[C@H](c2ccccc2)N2[C@H]1[C@@H](C(=O)NC[C@@H](O)c1ccccc1)[C@]1(C(=O)Nc3ccc(C#CC4=CCCCC4)cc31)[C@H]2c1ccccc1OCCO | active | active | inactive
51 | C[C@H](CO)N1C[C@H](C)[C@H](CN(C)S(=O)(=O)c2cccc(F)c2)Oc2ncc(C#CCN(C)C)cc2C1=O | inactive | inactive | inactive
52 | C[C@H](CO)N1C[C@H](C)[C@@H](CN(C)C(=O)c2ccccc2F)Oc2cc(C#CCN(C)C)ccc2S1(=O)=O | inactive | inactive | inactive
53 | C=C(CC)ON=c1[nH]c(=O)c2ncn([C@@H]3O[C@H]4CO[PH](O)(O)O[C@H]4[C@H]3OC(=O)CCC)c2[nH]1 | inactive | inactive | inactive
